Source: patent publication US20110182903A1, “NOVEL SOLUBLE CD83 POLYPEPTIDES, FORMULATIONS AND METHODS OF USE” (priority 2008, published 2011)

Assay: pH degradation rate study, SE-HPLC
Assay type: physicochemical
Protocol: To further investigate the role of pH and its influence on protein stability, wild-type hCD83ext (lot 021 in PBS at pH 7.6) was freshly thawed and analyzed (first row of Table 6) or stored at room temperature and 2-8° C., at pH's of 4, 5, 6, 7, 8 and 9. Samples were kept at −70° C. until analyzed, after 1,2, 4 and 10 days of storage. These samples were then analyzed by SEC HPLC (Table 6) or using by SDS-PAGE Bioanalyzer (under reduced and non-reduced conditions; FIGS. 31-35).

B1: hCD83ext-wt: recombinant human sCD83 (CD83 extracellular domain) purified from E. coli, wild type form, SEQ ID NO:5 (protein)
chain: GSPGTPEVKVACSEDVDLPCTAPWDPQVPYTVSWVKLLEGGEERMETPQEDHLRGQHYHQKGQNGSFDAPNERPYSLKIRNTTSCNSGTYRCTLQDPDGQRNLSGKVILRVTGCPAQRKEETFKKYRAEI
modifications: Synthetic extracellular domain of human CD83 with the addition of Gly-Ser-Pro-Gly at the N-terminus and Ile at the C-terminus
% AGGREGATE (pH 6, 2-8 C., 10 days): 9.90%
% FRAGMENTS (pH 6, 2-8 C., 10 days): 45.94%
% AGGREGATE (pH 6, RT, 1 day): 0.00%
% FRAGMENTS (pH 6, RT, 1 day): 46.19%
% MONOMER (pH 6, RT, 1 day): 53.81%
% AGGREGATE (pH 6, RT, 10 days): 11.78%
% FRAGMENTS (pH 6, RT, 10 days): 57.05%
% MONOMER (pH 6, RT, 10 days): 31.17%
% AGGREGATE (pH 7, 2-8 C., 1 day): 6.02%
% FRAGMENTS (pH 7, 2-8 C., 1 day): 37.63%
% MONOMER (pH 7, 2-8 C., 1 day): 56.35%
% AGGREGATE (pH 7, 2-8 C., 10 days): 12.60%
% FRAGMENTS (pH 7, 2-8 C., 10 days): 44.39%
% MONOMER (pH 7, 2-8 C., 10 days): 43.01%
% MONOMER (pH 7, RT, 1 day): 52.11%
